The target of this assay is CPA.7.048. The experiment in a line: SPR.

B1: human PVRIG fusion protein (Fc fusion)
chain: TPEVWVQVRMEATELSSFTIRCGFLGSGSISLVTVSWGGPNGAGGTTLAVLHPERGIRQWAPARQARWETQSSISLILEGSGASSPCANTTFCCKFASFPEGSWEACGSLPPSSDPGLSAPPTPAPILRAD[in this place human IgG1 Fc with changes]
modifications: Biotinylated in some assays. The protein acts as a bivalent Fc dimer; one chain is given.
In the case of B1, the Kd is 19 nM.

Broadly, the Kd is the equilibrium constant for the complex coming apart.
